Some of the results follow.

This test relates to S. aureus RN4220. The experiment in a line: growth inhibition call (relative growth <= 0.2). The note with it: 50 µM.
For `CNCC1CCOCC1`, the growth inhibition call is “inactive”.
With `CC(=O)CCc1ccc(OC(C)=O)cc1` the entry was “inactive”; with `C[C@@H]1CN([C@@H](C)CO)C(=O)Cc2cc(NC(=O)CCN3CCOCC3)ccc2O[C@H]1CN(C)CC1CC1`, “inactive”.
For `COc1ccc(CN(C)C[C@@H]2OCCCC[C@@H](C)Oc3ccc(NC(=O)Nc4ccc(OC)cc4)cc3C(=O)N([C@H](C)CO)C[C@@H]2C)cc1`, the growth inhibition call was “inactive”.
As to `O=C(O)C(O)C(O)C(O)C(O)C(=O)O` (stereo not given), the growth inhibition call is “inactive”.
With `C[C@H]1CN([C@@H](C)CO)C(=O)c2cc(C#CCN(C)C)cnc2O[C@H]1CN(C)Cc1cccc(C(=O)O)c1` the entry was “inactive”.
As for `Cc1noc(C)c1NC(=O)N[C@H]1C=C[C@H](CC(=O)NCCCN(C)C)O[C@@H]1CO`, the growth inhibition call was “inactive”.
In the case of `O=C(CS)NCCCCCNC(=O)[C@@H]1C[C@@H]2C(=O)N[C@@H](Cc3ccccc3)C(=O)N2[C@@H]1c1ccc(O)cc1`, the growth inhibition call was “inactive”.
`C[C@H]1Cc2cc(S(=O)(=O)N(C)CC(=O)N3CCOCC3)ccc2N1C(=O)C1CC1`: the growth inhibition call was “inactive”.
As to `O=C(C[C@@H]1C=C[C@@H](NC(=O)CN2CCOCC2)[C@@H](CO)O1)NC1CCCCC1`, the growth inhibition call is “inactive”.

The values above are taken from the antibiotic and cytotoxicity screens of Wong et al. (2023).
